Measurements as given in article PMC4336329 (PLoS ONE, 2015).
The campaign covered roughly 310,000 compounds. About 14,000 (4.5%) showed an effect of 50% or more. The effect is printed as a negative number. Some of the results follow.

Each compound was assayed against human ether-à-go-go-related gene (hERG) potassium channel (human, UniProt Q12809) (assay: primary screen, population patch clamp on CHO cells stably expressing hERG).
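Also: peak tail current of the secondary pulse compared with the same well before compound.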

human ether-à-go-go-related gene (hERG) potassium channel, sequence (Q12809 whole entry, looked up): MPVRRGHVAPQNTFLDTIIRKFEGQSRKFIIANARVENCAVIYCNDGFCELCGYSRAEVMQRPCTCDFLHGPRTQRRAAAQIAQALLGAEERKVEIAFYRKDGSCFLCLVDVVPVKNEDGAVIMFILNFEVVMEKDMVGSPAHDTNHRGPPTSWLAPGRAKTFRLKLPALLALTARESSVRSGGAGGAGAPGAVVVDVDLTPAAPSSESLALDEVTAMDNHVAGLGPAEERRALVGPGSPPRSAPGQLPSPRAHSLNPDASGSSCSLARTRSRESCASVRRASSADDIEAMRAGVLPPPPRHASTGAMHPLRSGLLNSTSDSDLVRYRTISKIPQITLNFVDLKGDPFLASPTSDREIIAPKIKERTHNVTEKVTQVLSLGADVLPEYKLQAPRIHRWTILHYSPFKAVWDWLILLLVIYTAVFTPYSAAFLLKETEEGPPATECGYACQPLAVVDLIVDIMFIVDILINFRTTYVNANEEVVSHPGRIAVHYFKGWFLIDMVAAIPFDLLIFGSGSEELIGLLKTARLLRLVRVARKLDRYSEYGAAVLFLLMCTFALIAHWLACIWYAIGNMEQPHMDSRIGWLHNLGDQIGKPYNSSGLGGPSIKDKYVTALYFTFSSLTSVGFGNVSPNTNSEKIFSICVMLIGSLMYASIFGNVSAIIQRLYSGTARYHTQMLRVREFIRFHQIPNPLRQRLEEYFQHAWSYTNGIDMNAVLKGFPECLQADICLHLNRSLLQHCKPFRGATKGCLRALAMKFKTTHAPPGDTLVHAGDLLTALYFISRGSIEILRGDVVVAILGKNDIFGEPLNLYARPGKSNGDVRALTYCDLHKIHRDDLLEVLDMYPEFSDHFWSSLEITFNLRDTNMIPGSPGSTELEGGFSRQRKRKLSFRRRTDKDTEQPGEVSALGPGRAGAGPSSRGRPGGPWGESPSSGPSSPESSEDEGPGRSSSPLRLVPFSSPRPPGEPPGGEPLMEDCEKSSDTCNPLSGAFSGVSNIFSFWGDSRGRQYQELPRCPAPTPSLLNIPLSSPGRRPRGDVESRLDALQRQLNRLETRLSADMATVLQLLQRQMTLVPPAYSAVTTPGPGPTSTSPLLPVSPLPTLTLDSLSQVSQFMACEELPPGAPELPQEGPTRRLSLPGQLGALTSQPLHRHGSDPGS

Structure (SMILES) | hERG current change (%, negative = inhibition) at 10uM [%]
CCCN1CCN(C(c2cc3cc(OCC)ccc3[nH]c2=O)c2nnnn2C2CCCCC2)CC1 (stereo not drawn) | -46.4
CCOc1ccc(C(CC(=O)O)n2cnnn2)cc1 (stereo not drawn) | 8.35
CN1CCC(OC(=O)COc2ccc(Cl)cc2Cl)CC1.Cl | -37.6
CC1=NN(C(=O)c2ccccc2-n2cccc2)C(O)(C(F)(F)F)C1 (stereo not drawn) | 39.8
CN1C(=O)c2ccccc2C(C(=O)O)C1c1cccc(F)c1 (stereo not drawn) | 0.483
C[C@H]1C[C@H]2[C@@H]3CCC4=CC(=O)C=C[C@]4(C)[C@@]3(Cl)[C@@H](O)C[C@]2(C)[C@@]1(O)C(=O)CO | 6.63
COc1cccc(N(CC(=O)NC2CCCC2)C(=O)CCC(=O)Nc2cc(C)on2)c1 | -16.4
CCC1Sc2ccc(S(=O)(=O)CCC(=O)Nc3ccc(NC(C)=O)cc3)cc2NC1=O (stereo not drawn) | 19
O=c1[nH]n2c(=O)c3c([nH]c2c1N=Nc1cccc(Cl)c1)CCC3 | 9.78
CNC(=O)/C(C#N)=C\c1ccc(CNS(=O)(=O)c2ccc(Cl)cc2)o1 | 18.4
CCOC(=O)c1ccc(Cl)c(S(=O)(=O)N2CCCC2)c1 | 23.8
COc1ccc(N2C(=O)C(Cl)=C(Nc3ccccc3O)C2=O)cc1 | 7.15
COc1ccc(Cl)cc1NC(=O)C/C(C)=N/NC(=O)c1ccc(O)cc1 | -1.35
COc1ccc(CCCNC(=O)CC#N)cc1OC | 5.89
NCC/C=C1/c2ccccc2CSc2ccccc21.O=C(O)/C=C\C(=O)O | -3.76
O=C1NC(=O)C(=Cc2coc3ccccc3c2=O)C(=O)N1 | 4.1
COc1cc(/C=N/NC(=O)COc2c(C)cc([N+](=O)[O-])cc2C)ccc1OC(=O)c1ccccc1 | 17.2
O=C1CCCN2N=C(SCC(=O)Nc3ccc(Br)cc3)SC2=N1 | 26.2
CCOC(=O)COc1ccc2c(c1)c(C(C)=O)c(C)n2-c1ccc(OC)cc1 | -24.7
O=C(NCc1cccnc1)c1cc(S(=O)(=O)N2CCOCC2)c(Cl)cc1Cl | -0.858
Cc1ccc(S(=O)(=O)c2cc3c(=O)n4ccccc4nc3n(C)c2=N)cc1C | -2.47
CCOC(=O)C(NCCc1ccccc1F)(NC(C)=O)C(F)(F)F (stereo not drawn) | 8.38

Structure (SMILES) | hERG current change (%, negative = inhibition) at 10uM [%]
CN=C(Nc1cc(C)nn1CCC#N)c1ccccc1 | 17.2
COc1cccc(NC(=O)Nc2cccn(Cc3ccccc3)c2=O)c1 | -13.7
O=C(c1cccs1)N1CCCC(c2nc(-c3ccc(F)cc3)no2)C1 (stereo not drawn) | -51.7
CCSc1nc2c(c(=O)[nH]c(=O)n2C)n1CC(O)COc1ccccc1 (stereo not drawn) | 14.3
OCCC1CN(Cc2ccccc2-c2ccco2)CCN1C1CCCC1 (stereo not drawn) | -63.8
Cc1ccc(S(=O)(=O)NC2(C(F)(F)F)C(=O)Nc3c2c(=O)[nH]c(=O)n3-c2ccccc2)cc1 (stereo not drawn) | 5.57
Cc1ccc(Nc2nnc(SCC(=O)NC3CCCc4ccccc43)s2)cc1 (stereo not drawn) | -13.3
COCCCNC(=O)COc1ccc(-c2nccc(-c3ccccn3)n2)cc1 | -3.83
CCOC(=O)c1ccccc1NC(=O)C(C)Oc1ccccc1 (stereo not drawn) | 5.95
CCc1ccc(-c2cc(C)no2)cc1S(=O)(=O)NCCN1CCC(C)CC1 | -7.14
CCN(C(=O)CSc1ccc2ccccc2n1)C1CCS(=O)(=O)C1 (stereo not drawn) | -7.61
COc1ccc(-c2cc(C(=O)n3cnc4ccccc43)c3ccccc3n2)cc1 | 5.38
CC(C)(C)CC(C)(C)NC(=S)N1CCN(Cc2ccc3c(c2)OCO3)CC1 | 35.1
CCn1c(=O)[nH]c2cc(C(=O)N3CCN(c4ccccc4)CC3)ccc2c1=O | 0.849
Cc1ccc(OCc2cc(C(=O)N3CCCCCCC3)no2)cc1C | 3.22
Cc1csc(NC(=O)CCC(=O)N(CC(=O)NC2CCCC2)Cc2ccco2)n1 | 0.0555
CCCCc1nc(N2CCOCC2)c(C#N)c2c1CCCC2 | -5.16
Cc1ccc(NC(=O)CSc2nc(N)cc(=O)[nH]2)cc1S(=O)(=O)N1CCOCC1 | 20
C/C(CC(=O)Nc1cccc(C(F)(F)F)c1)=N\NC(=O)C1CCCCC1 | -13.3
O=[N+]([O-])c1cc(S(=O)(=O)C(F)(F)F)ccc1NCC1CCCO1 (stereo not drawn) | 16.5
Cc1c(/C=N\NC(=O)c2csc3ccccc23)cnn1C | 14.6
CC1=[N+](C)N(c2ccccc2)C(=O)C1N=C/C=C/c1ccccc1 (stereo not drawn) | 5.16

Structure (SMILES) | hERG current change (%, negative = inhibition) at 10uM [%]
COC(CNC(=O)c1cc(-c2ccncc2)nc2ccc(S(=O)(=O)N3CCOCC3)cc12)OC | -27.1
O=c1c2ccccc2nc(-c2ccccc2)n1CCCn1ccnc1 | -31.9
CCCN1CCN(C(=S)Nc2ccc3nc(N4CCN(CC)CC4)cc(C)c3c2)CC1 | 2.61
O=C(O)C(Cc1ccccc1)N1C(=O)c2ccccc2C1=O (stereo not drawn) | -13.7
CCc1nonc1NC(=O)c1oc2c(C)c(C)ccc2c1C | 22.4
CCN1C[C@@]2(COC)C3[C@@H](OC)[C@H]4[C@@H]1[C@@]3(C1C[C@H]3[C@H](O)C1[C@]4(O)C[C@H]3OC)[C@@H](OC)C[C@H]2O (stereo partly drawn) | 19
CCOC(=O)c1ccc(NC(=O)CSc2nc3sc(C(=O)O)c(C)c3c(=O)[nH]2)cc1 | 15.6
Cc1cc(C)n(-c2nnc(C)n2/N=C/c2ccccc2F)n1 | -12
CC(=O)[C@@H]1[C@@H](C)N(Cc2ccccc2)C(=O)N[C@H]1c1ccccc1 | 10.4
Cc1cccc(C(=O)Nc2cccnc2Cl)c1 | 2.66
COC(=O)c1ccc(Cn2nc([N+](=O)[O-])c(Br)c2C)cc1 | -6.89
Cc1csc2nc(O)c(C(=O)NCc3ccc4c(c3)OCO4)c(=O)n12 | -0.16
COc1ccc(CNC(=O)COC(=O)c2n[nH]c3ccccc23)cc1 | 7.27
CC(C)C(=O)N1CCN(S(=O)(=O)c2ccc3ccccc3c2)CC1 | -10.4
COc1ccccc1-n1c(SCC(=O)Nc2nnc(C)s2)nc2c(c1=O)SCC2 | 14.1
CS(=O)(=O)c1ccc2nc(NC(=O)c3ccc(Cl)nc3)sc2c1 | 18.7
O=C(Nc1ccc(Cl)cc1)N1CCOCC1 | 13.8
CC(C)CC(=O)N/N=C/c1c(N)n(C)c(=O)n(C)c1=O | 21.7
CCOC(=O)N1CCN(C(=O)CSc2nc3c([nH]c4ccccc43)c(=O)n2CC)CC1 | -13.8
CC1=CCC(COC(=O)Nc2ccccc2)CC1 (stereo not drawn) | -12.2
O=C(COc1ccc(CO)cc1Cl)Nc1ccc(F)cc1 | -5.76
COc1ccc(CN(C(=O)c2oc3cc(C)c(C)cc3c2C)C2CCS(=O)(=O)C2)cc1OC (stereo not drawn) | 1.47

Structure (SMILES) | hERG current change (%, negative = inhibition) at 10uM [%]
Cc1ccccc1S(=O)(=O)Cc1ccc(C(=O)NCCN(Cc2ccccc2)C(C)C)o1 | -55.6
COC(=O)C(O)(c1ccc2c(c1)CCCN2)C(F)(F)F (stereo not drawn) | 3.04
Cn1c(=O)c2c(ncn2CC(=O)Nc2ccc3c(c2)OCO3)n(C)c1=O | 3.43
Cc1nn(CC(C)C)c(Cl)c1C(=O)NC1CCC(C)CC1 (stereo not drawn) | -42.8
CC1(C)C(=O)C2(C(=O)NCc3ccccc3)CCC1C2 (stereo not drawn) | 12.1
CC(Cn1nnc2ccccc21)C(=O)O (stereo not drawn) | -1.46
COc1ccc(NC(=O)COC(=O)c2ccc3ccccc3n2)cc1 | 14.8
O=C(Nc1ccc(F)cc1)N1CCCN(c2nccc(C(F)(F)F)n2)CC1 | -5.24
CN(c1cccc(Cl)c1)S(=O)(=O)c1cccc(C(=O)Nc2ccc3c(c2)CCC3)c1 | 10.2
Cc1ccsc1-c1nc(CSCC(=O)NCc2ccc3c(c2)OCO3)c(C)o1 | -29.2
Cl.OCCCCNCc1cc(Br)ccc1OCc1ccccc1 | -61.8
COc1cc(CCC(=O)N2CCN(c3ncccn3)CC2)cc(OC)c1OC | 11.8
CC(C)CC(=O)NC(C)C(c1cccs1)N1CCOCC1 (stereo not drawn) | -0.115
CC(C)NC(=S)Nc1ccc(Oc2ccccc2)cc1 | 3.37
CC(C)NS(=O)(=O)c1ccc(NC(=O)C2CC3C=CC2C3)cc1 (stereo not drawn) | 7.15
CNC(=O)NC(=O)C(C)N1CCN(C/C=C/c2ccccc2)CC1 (stereo not drawn) | -63
CC(C)(C)c1cc(/C=N/NC(=O)Cc2nc3ccccc3[nH]2)cc(C(C)(C)C)c1O | 7.46
CCC1SC(C)C/C(=N/NC(N)=O)C1C (stereo not drawn) | -0.535
Cc1ccc(S(=O)(=O)N(C)C)cc1NC(=O)CSc1nnnn1-c1ccc(O)cc1 | -20.9
Cc1ccccc1C(=O)NC(=S)Nc1ccc(Oc2ccc(Cl)cc2)cc1 | 11.5
Cn1c(COc2ccccc2)nnc1SCc1cc(=O)[nH]c2ccccc12 | -23.5
